The whole screen tested about 370,000 compounds, of which about 150 (0.041%) were called active. The inconclusive results got no clear call from the source; some entries with a clear call stand among them for comparison. Calls follow the shape of the dose curve; as a rule, active = well fitted inhibition curve with a large enough effect; inconclusive = small, poorly fitted or top-dose-only effect; inactive = flat fitted curve, though single readings scatter. No potency is given beside an inconclusive call; the fits are too rough.
molecular target: Beta-lactamase (Escherichia coli (strain K12)) (UniProt P00811); assay: qHTS Inhibitors of AmpC Beta-Lactamase (assay with detergent); conditions: AmpC hydrolysis of nitrocefin, absorbance 480 nm, 0.01% Triton; series mostly up to 114 µM; also: nearly all actives have a fitted effect of over 25% in size
Method in brief: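 AmpC (5.3 nM in the dispensed reagent) in 20 mM phosphate pH 7.0 with 0.01% (detergent screen) or 0.0001% Triton X-100 was preincubated with compounds for 15 min at room temperature. Nitrocefin was then added from an 800 uM solution, and hydrolysis was followed at 480 nm.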
Potency is read from the fitted curve at half-maximal effect; tags tell the direction and shape of the fitted curve.

UniProt P00811, sequence (P00811 whole entry, looked up): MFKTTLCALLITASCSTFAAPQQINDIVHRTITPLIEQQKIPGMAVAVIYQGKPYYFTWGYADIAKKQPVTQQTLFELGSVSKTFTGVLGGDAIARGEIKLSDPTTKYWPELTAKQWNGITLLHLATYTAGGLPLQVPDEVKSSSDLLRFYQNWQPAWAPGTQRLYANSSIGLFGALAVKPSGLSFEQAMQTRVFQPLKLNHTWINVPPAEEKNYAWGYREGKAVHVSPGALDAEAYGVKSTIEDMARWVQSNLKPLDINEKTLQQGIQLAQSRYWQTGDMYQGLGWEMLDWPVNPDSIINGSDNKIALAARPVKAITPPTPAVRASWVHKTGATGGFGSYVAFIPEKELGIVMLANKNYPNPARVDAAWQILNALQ

| Compound | Potency |
| --- | --- |
| O=C(c1ccccc1)c1ccc2nc(N3CCCCC3)c3nncn3c2c1 | inconclusive [inhibitor, partial curve, poor fit] |
| O=C1c2ccccc2CN1CCSC(=S)N1CCOCC1 | inconclusive [inhibitor, partial curve, poor fit] |
| CCOc1cc(/C=N/NC(=O)c2cccc([N+](=O)[O-])c2)ccc1OS(=O)(=O)c1ccccc1 | inconclusive [inhibitor, partial curve, poor fit] |
| CCN1CCN(C(=O)/C=C\C(=O)O)CC1 | inconclusive [inhibitor, full curve, poor fit] |
| CC(C)c1nc(=S)c2ccccc2[nH]1 | inconclusive [inhibitor, full curve, poor fit] |
| CCc1cc2c(=O)c(Oc3ccccc3F)c(C)oc2c(CN(C)C)c1O | inactive |
| CN(C(=O)CSc1nncn1C)C1CCCN(Cc2ccccc2F)C1 (stereo not given) | inconclusive [inhibitor, full curve, poor fit] |
| Cc1ccn2cc(-c3cccc(S(=O)(=O)N4CCCC4)c3)nc2c1 | inactive |
| COc1ccc(CC(=O)OCc2cc(=O)n3cc(Br)ccc3n2)cc1OC | inconclusive [inhibitor, partial curve, poor fit] |
| Cn1c(=O)c2c(nc(Sc3n[nH]c(N)n3)n2Cc2ccccc2Cl)n(C)c1=O | inconclusive [inhibitor, partial curve] |
| Cc1ccc2nc(-c3ccccc3Cl)cc(C(=O)Nc3cc(C)on3)c2c1 | inconclusive [inhibitor, partial curve] |
| COC(=O)C1=C(C)N(Cc2ccccc2)C(=S)N[C@H]1CCc1ccccc1 | inconclusive [inhibitor, full curve] |
| O=[N+]([O-])c1nn(-c2ccc(Cl)cc2)n(O)c1=NCc1cccnc1 | inactive |
| CC(C)(C)NC(=O)c1cc(C(C)(C)C)c(O)c(C(C)(C)C)c1 | inactive |
| COc1ccc(CC2c3cc(OC)c(OC)cc3CCN2C)cc1OC (stereo not given) | inconclusive [inhibitor, full curve, poor fit] |
| CCCOC(=O)c1c(N)n(Cc2cccs2)c2nc3ccccc3nc12 | inconclusive [inhibitor, partial curve] |
| COCCNC(=O)Cn1c(-c2cccs2)cc2cc(Cl)ccc21 | inactive |
| COc1cccc(NC(=O)c2ccc3c(c2)N(CC(=O)N2CCOCC2)C(=O)C(C)(C)O3)c1 | inactive |
| CCc1ccccc1NC(=O)CN(c1ccccc1OC)S(=O)(=O)c1ccc(C)cc1 | inactive |
| CC1CCN(S(=O)(=O)c2ccc3c(c2)N(CC(=O)NCCCOC(C)C)C(=O)CO3)CC1 | inconclusive [inhibitor, partial curve, poor fit] |
| O=C(COc1ccccc1)N(Cc1cccnc1)c1nc2c(F)cc(F)cc2s1 | inactive |
| CCC1=NN2C(=N)/C(=C\c3cccn3-c3cccc(Cl)c3)C(=O)N=C2S1 | inconclusive [inhibitor, full curve] |
| Cc1ccc(CNC(=O)/C=C/c2ccc(S(=O)(=O)NCc3ccco3)cc2)cc1 | inconclusive [inhibitor, full curve, poor fit] |
| O=C(Nc1ccc(S(=O)(=O)N2CCCCC2)cc1)c1ccccc1Cl | inconclusive [inhibitor, full curve, poor fit] |

| Compound | Potency |
| --- | --- |
| C=CCn1c(=O)c(C(=O)Nc2ccccc2C)c(O)c2ccccc21 | inconclusive [inhibitor, full curve, poor fit] |
| COc1cccc(C2C(C(=O)c3ccc(C)o3)=C(O)C(=O)N2c2cc(C)on2)c1 (stereo not given) | inactive |
| Cc1snc(SCc2ccc(Cl)cc2)c1C#N | inactive |
| CCCc1nc2c(C)ccc(C)c2c(N)c1CC | inactive |
| Cc1cc(C(=O)OCC(N)=O)c(C)n1-c1ccccc1 | inactive |
| Cc1cccn2c(=O)nc(SCC(=O)N3N=C(c4cccs4)CC3c3ccc(F)cc3)nc12 (stereo not given) | inactive |
| Cc1ccc(C2CC(=O)N(Cc3ccc(F)cc3)c3c2c(C)nn3-c2nc(C)cc(C)n2)cc1 (stereo not given) | inactive |
| CC(C)Cc1nc2sc3c(c2c(=O)n1N)CC(C)(C)OC3 | inactive |
| Cc1ccc(S(=O)(=O)N2CCC(C(=O)N3CCC[C@H]3C(=O)NCc3ccccc3)CC2)cc1 | inactive |
| Cc1ccccc1CN1C(=O)c2ccccc2S(=O)c2ccc(C(=O)N3CCOCC3)cc21 (stereo not given) | inconclusive [inhibitor, single point] |
| O=S(=O)(Nc1cccc2ccccc12)N1CCCC1 | inconclusive [inhibitor, full curve, poor fit] |
| COc1ccccc1CCNC1CCCCCC1 | inconclusive [inhibitor, full curve, poor fit] |
| COc1ccc(CNc2nc3c(c(=O)[nH]c(=O)n3C)n2Cc2ccccc2C)cc1 | inconclusive [inhibitor, full curve, poor fit] |
| Cc1ccc(NS(=O)(=O)c2ccc(C(=O)NCc3cccnc3)cc2)cc1 | inactive |
| CC1(C)Cc2c(cnn2-c2ccccc2)-c2c1c1ccccc1n2CC(O)CCl (stereo not given) | inconclusive [inhibitor, partial curve, poor fit] |
| O=C(NCc1ccccn1)c1ccc(Cl)c(S(=O)(=O)N2CCCCCC2)c1 | inactive |
| N#Cc1cccc(NC(=O)COC(=O)C2CCC2)c1 | inconclusive [inhibitor, full curve] |
| Cc1c(Cl)cccc1NC(=O)NCc1ccncc1 | inactive |
| O=C(CCn1c(=O)oc2cc(Cl)ccc21)Nc1ccc(O)cc1 | inactive |
| Cc1ccccc1-n1nc2c(c1NC(=O)C(C)(C)C)CS(=O)(=O)C2 | inconclusive [inhibitor, single point] |
| CCN(CC)c1ccc(C(=O)NNC(=O)CNC(=O)c2ccco2)cc1 | inconclusive [inhibitor, partial curve] |
| COC(=O)CC1(c2cccc3ccccc23)C(=O)c2ccccc2C1=O | inconclusive [inhibitor, full curve, poor fit] |
| CN1CCN(Cc2nc3c(c(=O)[nH]c(=O)n3C)n2Cc2c(F)cccc2Cl)CC1 | inconclusive [inhibitor, full curve, poor fit] |
| Cc1ccc(CCNC(=O)C2CCCN(S(=O)(=O)c3cccs3)C2)cc1 (stereo not given) | inconclusive [inhibitor, full curve, poor fit] |

| Compound | Potency |
| --- | --- |
| Cc1ccccc1-n1c(=O)c2ccccc2n2nnnc12 | inconclusive [inhibitor, full curve] |
| COc1ccccc1CNC(=O)COC(=O)c1cc([N+](=O)[O-])ccc1N1CCOCC1 | inconclusive [inhibitor, full curve, poor fit] |
| Cc1ccc2[nH]c(=O)c(CN(CC3CCCO3)C(=S)Nc3ccccc3)cc2c1 (stereo not given) | inconclusive [inhibitor, full curve, poor fit] |
| COC(=O)c1ccccc1N(Cc1ccccc1)S(C)(=O)=O | inconclusive [inhibitor, partial curve] |
| CC(CSc1nc2ccccc2s1)Cn1c(N2CCCC2)nc2c1c(=O)[nH]c(=O)n2C (stereo not given) | inactive |
| Oc1ccc2ccccc2c1/C=N/c1nccs1 | inconclusive [inhibitor, partial curve, poor fit] |
| CCOc1cccc2c1OC1(CCCCC1)N1N=C(c3cccnc3)CC21 (stereo not given) | inconclusive [inhibitor, full curve, poor fit] |
| O=c1c2c3c(sc2nc2n1CCCCC2)CCCCC3 | inconclusive [inhibitor, full curve, poor fit] |
| C=CCN(CC=C)S(=O)(=O)c1ccc(NC(=S)NC(=O)Cc2ccc(OC)cc2)cc1 | inactive |
| O=C(Nc1cccc([N+](=O)[O-])c1)Nc1cccc([N+](=O)[O-])c1 | inactive |
| CN(C)c1ccc(/C=C/C(=O)c2ccc3c(c2)OCCO3)cc1[N+](=O)[O-] | inconclusive [inhibitor, full curve] |
| COc1cc(C(=O)Nc2nc(OC)c(-c3ccccc3)c(OC)n2)cc(OC)c1OC | inconclusive [inhibitor, full curve, poor fit] |
| CC1CCCCC1NC(=O)CNC(=O)c1ccco1 (stereo not given) | inconclusive [inhibitor, full curve, poor fit] |
| Cc1oc2c(c1C(=O)Nc1ccc(OC(F)(F)F)cc1)C1=NCCN1C=N2 | inactive |
| C=CCN(c1ccccc1)S(=O)(=O)c1cccc(C(=O)Nc2ccc(N3CCOCC3)cc2)c1 | inactive |
| COc1cc(/C=N/N=C(N)N)ccc1OCc1ccc(Cl)cc1 | inactive |
| Cc1cc(Cl)ccc1NC(=O)c1ccc2c(c1)CCN2S(C)(=O)=O | inconclusive [inhibitor, full curve] |
| Cc1ccc(CC2C(=O)N(c3cc(Cl)ccn3)C(=O)C2C)cc1 (stereo not given) | inactive |
| COC(=O)Cc1csc(Nc2ccccc2Cl)n1 | inconclusive [inhibitor, single point] |
| COCCn1c(-c2ccc(C)cc2)nc2oc3cc(OC)ccc3c(=O)c2c1=O | inactive |
| Cc1cnc(C(=O)OCC(=O)c2c(N)n(CC(C)C)c(=O)n(C)c2=O)cn1 | inconclusive [inhibitor, partial curve, poor fit] |
| O=C(O)CCCC(=O)Nc1ccccc1C(=O)N1CCCC1 | inconclusive [inhibitor, partial curve] |

Source: PubChem BioAssay AID485294 (National Center for Advancing Translational Sciences (NCATS), 2010)
